# Publication PMC6919601, “Identification of Plasmodium dipeptidyl aminopeptidase allosteric inhibitors by high throughput screening” (PLoS ONE, 2019)
# Several values for one entry are separate records, joined by “and”; a condition that tells them apart may be missing. Equal values may be shown once. Hit rate of the full screen: of about 110,000 compounds, about 230 (0.21%) showed an effect of 50% or more. The list shows a part of the results.
# Target: DPAP1 (Plasmodium falciparum, UniProt Q8IIJ9)
# Experiment: primary screen, percent inhibition; read by cleavage of a fluorogenic dipeptide substrate; higher = more effect of the substance
# Set-up: species or system P. falciparum D10 trophozoite lysates; single well
# 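Further: 30 min substrate incubation versus DMSO and 10 µM JCP410 controls.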
# Chain of DPAP1 (Q8IIJ9 whole entry, looked up): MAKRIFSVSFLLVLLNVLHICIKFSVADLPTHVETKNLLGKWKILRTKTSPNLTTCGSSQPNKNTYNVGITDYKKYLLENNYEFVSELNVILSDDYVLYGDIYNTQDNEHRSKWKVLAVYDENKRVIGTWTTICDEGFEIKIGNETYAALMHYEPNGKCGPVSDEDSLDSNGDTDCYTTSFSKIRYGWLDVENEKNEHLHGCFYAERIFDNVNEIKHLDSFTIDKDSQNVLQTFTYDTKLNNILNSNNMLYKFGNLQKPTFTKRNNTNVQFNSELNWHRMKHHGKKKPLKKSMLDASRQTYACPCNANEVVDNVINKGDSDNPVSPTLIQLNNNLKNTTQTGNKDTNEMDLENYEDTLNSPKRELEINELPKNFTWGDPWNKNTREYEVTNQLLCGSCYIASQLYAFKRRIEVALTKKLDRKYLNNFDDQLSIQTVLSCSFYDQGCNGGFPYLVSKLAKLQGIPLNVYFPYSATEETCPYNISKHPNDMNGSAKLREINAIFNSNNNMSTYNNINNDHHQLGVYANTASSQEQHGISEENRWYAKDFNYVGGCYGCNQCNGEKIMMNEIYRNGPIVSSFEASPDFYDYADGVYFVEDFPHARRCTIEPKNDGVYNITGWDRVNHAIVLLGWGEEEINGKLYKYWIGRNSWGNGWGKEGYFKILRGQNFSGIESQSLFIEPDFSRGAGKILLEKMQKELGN
row,SMILES,% Inhibition @ 10 uM
1,NC(=O)c1ccc(NC(=O)CNS(=O)(=O)c2cc(Cl)ccc2Cl)cc1,-2.83%
2,CCCCCC1CCC(c2ccc(-c3noc(-c4ccc(C5CCC(CCCCC)CC5)cc4)n3)cc2)CC1 (centres unmarked),0.98%
3,CN1CCN(C(=O)N2c3ccccc3C=Cc3ccccc32)CC1,-2.42% and 1.57%
4,CCc1ccc(CN(C(=O)c2ccc(OC(C)C)cc2)C2CCS(=O)(=O)C2)cc1 (centres unmarked),0.413%
5,CC(=O)c1cccc(NC(=O)c2ccc(C)c(Br)c2)c1,0.145%
6,CC1CCc2c(sc(NC(=O)c3cccnc3)c2C(N)=O)C1 (centres unmarked),4.39%
7,O=C(O)c1ccc(CNS(=O)(=O)c2ccc(Cl)cc2)cc1,1.42%
8,CC1CCN(S(=O)(=O)c2ccc3c(ccn3CCC(=O)NC(C)C)c2)CC1,1.06%
9,c1csc(C(N2CCOCC2)N2CCOCC2)c1,10.6%
10,COc1cccc(NC(=O)C2C(=O)N(C)c3ccccc32)c1 (centres unmarked),26.3%
11,OC1=C2C(=Nc3ncnn3C2c2ccccc2)CCC1 (centres unmarked),-2.06%
12,CCC1CCc2nc3sc(C(=O)Nc4nc(C)cs4)c(N)c3cc2C1 (centres unmarked),25.1%
13,O=C(CN1C(=O)CSc2ncccc21)NCCCN1CCc2ccccc2C1,1.03%
14,CN1C(=O)c2ccccc2C(C(=O)N2CCC(c3ccccc3)C2)C1c1cccs1 (centres unmarked),-3.27%
15,COc1cc(-c2nc(O)c3c4c(sc3n2)CCCC4)ccc1C,2.01%
16,COc1cccc(OC)c1C(=O)N1CCN(C(=O)Cc2ccccc2)CC1,-4.59%
17,CC1=CC2=NC(=O)/C(=C\c3cn(Cc4ccccc4F)c4ccccc34)C(=N)N2O1,-5.1%
18,O=C(CN(c1ccc2c(c1)OCCO2)S(=O)(=O)c1ccccc1)N1CCN(c2ccccc2)CC1,-0.425%
19,Cc1nn(-c2ccccc2)c2c1N(CC(=O)NCCc1cccs1)C(=O)CS2,-0.678%
20,NS(=O)(=O)c1ccc(CNC(=O)NC23CC4CC(CC(C4)C2)C3)cc1,4.88%
21,CCC(NS(=O)(=O)c1ccc(S(=O)(=O)N2CCOCC2)cc1)C12CC3CC(CC(C3)C1)C2 (centres unmarked),-3.04%
22,Cc1nn(CCCC(=O)N(C)Cc2ccccc2)c(=O)c2cc3sccc3n12,-3.35%
23,Cc1ccccc1N1C(=O)C2CCCCC2C1=O (centres unmarked),-0.0938%
24,CC1=C(C(=O)OC2CCCC2)C(c2ccc(F)cc2)NC(=O)N1 (centres unmarked),3.44%
25,CCOc1ccc(NC(=O)c2c([N+](=O)[O-])cnn2C)cc1,-8.11%

row,SMILES,% Inhibition @ 10 uM
1,CCOC(=O)N1CCN(C(=O)C(NS(=O)(=O)c2cccc3nsnc23)c2ccccc2)CC1 (centres unmarked),-3.23%
2,Cc1cccc(Oc2coc3cc(O)ccc3c2=O)c1,-2.87%
3,CCC(=O)NCCn1c(C)cc2ccccc21,3.67%
4,O=C(Nc1cccc(Cl)c1)[C@@H]1C[C@@H]1c1ccccc1,3.1%
5,CCOc1ccccc1CN1CCN(c2cccc(C(F)(F)F)c2)CC1,-0.0404%
6,O=S(=O)(c1ccc(F)cc1)N1CCN(c2ccccc2)CC1,-4.91%
7,COc1ccc(OC)c(NC(=O)c2c(-c3ccccc3)noc2C)c1,-7.06%
8,Cc1ccc(S(=O)(=O)N(CC(=O)NC2CCCC2)C2CCCCC2)cc1,-2.18%
9,N#CCNC(=O)[C@H](Cc1ccc2ccccc2c1)NC(=O)N1CCOCC1,-3.97%
10,Cc1ccc2c(c1)c1c3n2CCN(CCC(=O)O)C3CCC1 (centres unmarked),-1.41%
11,Cc1occc1C(=O)NCc1ccc2c(c1)OCO2,-0.598%
12,Cn1c(NC(=O)c2cnn(-c3ccccc3)c2-n2cccc2)nc2ccccc21,0.275%
13,O=C(CCc1nc(-c2ccccc2Cl)no1)N1CCCC1,-1.35%
14,CCOC(=O)c1cnc2cc(-c3ccc(C)cc3)nn2c1C,1%
15,Cc1cc(=O)n(CC(=O)NCc2ccco2)c2c1c(C)nn2C,-1.93%
16,COc1ccccc1CNC(=O)c1ccc2c(c1)nc(C)n2-c1ccc(Br)cc1,-5.64%
17,CC/N=C1\SC(CC(=O)Nc2ccc(C(C)=O)cc2)C(=O)N1CC (centres unmarked),-11.6%
18,Cc1cccn2c(O)cc(=O)nc12,7.74%
19,CCCCCc1ccc(-c2ccc(/C=C/C(=O)O)cc2)nc1,2.91%
20,Cc1ccc(-n2ncnc2-c2ccc(Cl)cc2Cl)cc1Cl,-2.48%
21,O=C(CCc1nc(CN2CCN(S(=O)(=O)Cc3ccccc3)CC2)no1)N1CCCC1,7.04%
22,O=C(c1ccc(COc2ccc(F)cc2)o1)N1N=C(C(F)F)CC1(O)C(F)F (centres unmarked),3.24%
23,O=C(OC1c2ccccc2Oc2ccccc21)c1ccc(-c2ccccc2)cc1,2.62%
24,COc1ccc2c(Sc3ccc(C)cc3)c(C(=O)NCCCN3CCCC3=O)[nH]c2c1,1.15%
25,COc1ccccc1-c1nnc(C2CCN(S(=O)(=O)c3c(C)cc(C)cc3C)CC2)o1,-3.11%

row,SMILES,% Inhibition @ 10 uM
1,COc1cc(CN2CCN(C(=O)C(c3ccccc3)c3ccccc3)CC2)cc(OC)c1O,-3.04%
2,CCOc1ccc(NC(=O)C2=C(C)NC(=O)NC2c2ccc(Br)cc2)cc1 (centres unmarked),-1.17%
3,OCCn1c2ccccc2c2cc(Br)ccc21,4.22%
4,O=C(N[C@@H](Cc1ccccc1)C(=O)N[C@@H](CCc1ccccc1)C(=O)CO)C1CCCN1 (some centres unmarked),-0.778%
5,O=S(=O)(Nc1ccc(O)c2ccccc12)c1cccs1,2.51%
6,CC1CCN(c2c(NCC3CCC(C(=O)NC4CCCCC4C)CC3)c(=O)c2=O)CC1 (centres unmarked),-3.96%
7,CCOc1ccc2nc(N3CCC(C(=O)NC)CC3)sc2c1,0.137%
8,CCCCC(=O)N(CC)c1nc(-c2ccccc2)cs1,-0.426%
9,CCCc1nnc(NC(=O)C(CC)Sc2nnc3c4ccccc4n(CC)c3n2)s1 (centres unmarked),-3.64%
10,CCOC(=O)c1oc2ccc(Cl)cc2c1NC(=O)CCCN1C(=O)c2ccccc2C1=O,-0.703%
11,COc1ccc(CCn2c(N)cc(=O)[nH]c2=O)cc1OC,-16.3%
12,COc1ccc(S(=O)(=O)NCCO)cc1-c1nnc2c3ccccc3c(C)nn12,-4.78%
13,CCc1nnc(S)n1/N=C/c1ccc(OC)c(OC)c1,3.81%
14,Cc1ccc(Nc2nc(N)nc(CSc3ncccn3)n2)cc1,-2.09%
15,COc1ccc2nc(NC(=O)CCc3nc(C4=CCN(C)CC4)no3)sc2c1,-2.84%
16,CC(C)(C)c1ccc(-c2nnc(SCC(=O)O)n2Cc2ccccc2)cc1,-0.495%
17,O=C(c1ccc2c(c1)sc1nc(-c3ccc(F)cc3)cn12)N1CCN(c2ncccn2)CC1,15.9%
18,C=CCNc1sc(S(=O)(=O)CC)nc1S(=O)(=O)c1ccc(Cl)cc1,-2.47%
19,CCOC(=O)N1CCC(N2CC3(C)CC2CC(C)(C)C3)CC1 (centres unmarked),-1.82%
20,COC(=O)c1ccc(-c2ccco2)n1CC(=O)N1CCN(C2CCCCC2)CC1,-5.37%
21,CCCCOc1ccccc1C1C(C(=O)OC)=CN(Cc2ccc(F)cc2)C=C1C(=O)OC,3.45%
22,O=C(CCc1nc2cccnc2n1Cc1cccs1)NCCc1ccccc1,-3.45%
23,CCc1cc2c(cc3c(=O)n(CC(=O)NC4CCCC(C)C4C)ncn32)s1 (centres unmarked),3.29%
24,CCOC(=O)/C=C/C(=O)Nc1nccs1,-3.21%
25,Cc1ccc(/C=c2\sc3nc(-c4cccc(Cl)c4)nn3c2=O)o1,5.44%

row,SMILES,% Inhibition @ 10 uM
1,O=C1C(=O)N(CN2CCCCCC2)c2ccccc21,-6.68%
2,O=C(CSc1nc(=O)c2ccccc2s1)NC12CC3CC(CC(C3)C1)C2,-0.403%
3,CS(=O)(=O)C1=NN2C(=N)/C(=C\c3ccc(Sc4ccc(Cl)cc4)o3)C(=O)N=C2S1,0.163%
4,Cc1ccc2[nH]c(C3=C(N)N(CC(C)C)CC3=O)nc2c1,0.486%
5,O=[N+]([O-])c1ccc(N2CCN(Cc3ccc(-c4ccccc4)cc3)CC2)cc1,1.48%
6,CC(=C/C(=O)O)/C=C/c1c[nH]c2ccccc12,14.3%
7,CC(=O)c1c(C)[nH]c(C(=O)NCc2cccs2)c1C,-8.06%
8,COc1ccc(C(=O)OC2CC3CCC(C2)[N+]3(C)[O-])cc1OC (centres unmarked),8.36%
9,CC(C)(C)c1ccc(C(CC(=O)O)NC(=O)CCCc2ccccc2)cc1 (centres unmarked),6.17%
10,CCOc1ccccc1C(=O)NC1(C(F)(F)F)NC(=O)N(C)C1=O (centres unmarked),-0.736% and 5.17%
11,CCCN1CCN(C(=O)c2cc3c(s2)-c2ccccc2OC3)CC1,-1.37%
12,CCN(CC)C(=O)NC(=O)c1c(C)cc(Cl)nc1Cl,4.32%
13,CCC1CCCCN1CCCNC(=O)c1ccc(CS(=O)(=O)Cc2ccccc2F)o1 (centres unmarked),-4.53%
14,CCOC(=O)C1=C(CS(=O)(=O)c2ccc(F)c(C)c2)NC(=O)NC1c1ccccc1 (centres unmarked),-7.71%
15,CCOc1ccc(/C=C2/SC(N3CCCCC3)=NC2=O)cc1,-1.89%
16,O=C(CN1CCN(Cc2ccc(F)cc2Cl)C1=O)NCc1cccs1,0.128%
17,O=C(CSc1[nH]c(-c2ccccc2)nc1-c1ccccc1)NCc1ccco1,0.163%
18,CCOc1ccc(N2C(=O)CC(NCCc3ccc(F)cc3)C2=O)cc1 (centres unmarked),2.54%
19,CCOC(=O)c1nnn(-c2nonc2-n2cccc2)c1CS(=O)(=O)Cc1ccccc1,-0.92%
20,Cc1ccc(CNC(=O)C2CCN(S(C)(=O)=O)CC2)cc1,3.66%
21,CSc1ccccc1NC(=O)c1c(F)cccc1F,4.07%
22,COc1ccccc1OCCCN1CCCC1,2.41%
23,COc1ccc2c(CNC3CCC(C)CC3)c(C(=O)O)n(Cc3ccc(C)cc3)c2c1 (centres unmarked),5.68%
